Assays:
Miapaca-2 cells = test: Cell proliferation / viability assay (CellTiter-Glo, dose matrix) in Miapaca-2 cells; format: cell-based; conditions: Miapaca-2, KRAS mutant pancreatic cancer cell line; 120 hours incubation; presence and absence of IGF1 (100 ng/ml)
Description: (§1) A cell proliferation assay was performed to investigate the activity of the combination of COMPOUND A and ANTIBODY A on Insulin-like Growth Factor 1 (IGF1)-induced proliferation of the KRAS mutant cell lines Miapaca-2 and AsPC-1. To evaluate the combination effect in a non-biased way, and to identify synergistic effects at different concentrations, the study was conducted using a “dose matrix” scheme (described in detail below).
(§2) COMPOUND A (10 mM) was stored in aliquots at −20° C. ANTIBODY A (0.2 mM in 1% BSA) was stored in aliquots at 4° C. Insulin-like Growth Factor-1 (IGF1; R&D System, Cat #291-G1) was reconstituted at 100 ug/mL in sterile Phosphate Buffered Saline (PBS).
(§3) The KRAS mutant, pancreatic cancer cell lines Miapaca-2 and AsPC-1 were cultured in DMEM medium (ATCC Cat #30-2002) and RPMI-1640 (ATCC Cat #30-2001) plus 10% Fetal Bovine Serum (FBS; Invitrogen Cat #10099-141) as recommended by the supplier. Cells were cultured in T-150 flasks using standard cell culture techniques and split upon reaching 80% confluency. TryPLE Express (Invitrogen #12604-013, no phenal red) was used for all cell dissociation. Cell count and viability were measured using Trypan dye exclusion with a ViCell counter (Beckman-Coulture). Cells were determined to be free of Mycoplasma using a PCR detection method (www.radil.missouri.edu). […]

AsPC-1 cells = test: Cell proliferation / viability assay (CellTiter-Glo, dose matrix) in AsPC-1 cells; format: cell-based; conditions: AsPC-1, KRAS mutant pancreatic cancer cell line; 120 hours incubation; presence and absence of IGF1 (100 ng/ml)
Description: as §1, §2, §3

B1: ANTIBODY A: IGF1R inhibitory antibody with heavy chain SEQ ID NO:1 and light chain SEQ ID NO:2, disclosed in U.S. Pat. No. 7,871,611 (antibody)
heavy: QVQLQESGPGLVKPSGTLSLTCAVSGGSISSSNWWSWVRQPPGKGLEWIGEIYHSGSTNYNPSLKSRVTISVDKSKNQFSLKLSSVTAADTAVYYCARWTGRTDAFDIWGQGTMVTVSS[sequence of human IgG1 constant region omitted]
light: [sequence of about 100 residues omitted]THWPLTFGQGTKVEIKRTVAAPSVFIFPPSDEQLKSGTASVVCLLNNFYPREAKVQWKVDNALQSGNSQESVTEQDSKDSTYSLSSTLTLSKADYEKHKVYACEVTHQGLSSPVTKSFNRGEC
modifications: Synthetic antibody A heavy chain; Synthetic antibody A light chain
single agent anti-proliferative activity (Miapaca-2 cells): almost totally inactive
single agent anti-proliferative activity (AsPC-1 cells): almost totally inactive

Reference: patent US8961970B2, “Combination therapy” (Novartis AG, priority 2012, dated 2015)
